Laboratory results reported in PubChem BioAssay (NCATS).
Values joined by “and” are separate entries in the source; they are usually repeats but may differ in a detail not shown here. Identical values can stand only once. Some of the results follow. These are further read-outs of the screen, such as a control signal, another cell line or another target. No call is given for them. The list favours compounds with an active or inconclusive main result. Words in brackets tell the shape of the fitted curve; partial curves, single points and poor fits give uncertain potencies.

Columns and labels:
[1] = qHTS Assay for Lipid Storage Modulators (AID 1519); settings: Drosophila S3 cells, BODIPY lipid droplet/cell ratio, laser cytometry, cells loaded with oleic acid
Outline: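 Cells seeded at 5,000 per well were treated with compounds over a concentration series and loaded with oleic acid (400 uM, as added). Lipid droplet fluorescence (488 nm excitation, 500-530 nm channel) was read by laser-scanning cytometry and normalized to 20 uM Triacsin C.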

[2] = qHTS Assay for Inhibitors of PDE-IV (AID 607); settings: HEK293 ACTOne CNG channel cells, membrane potential fluorescence; measured here: parental cell counter-screen;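 also: parental cells stimulated with forskolin 10 µM plus RO 20-1724 100 µM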
Outline: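 Cell-based read-out of cAMP via a modified cyclic nucleotide-gated channel and membrane potential dye (535/590 nm) in HEK293 cells expressing PDE4 endogenously. Compounds tested up to 22.9 uM final; 100 uM RO 20-1724 reference.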

[3] = qHTS Assay for Modulators of Human Peripheral Myelin Protein 22 (PMP22) Expression/Activity (AID 1967); settings: Cell-based PMP22 reporter, dual-color luciferase ratio
Outline: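 Mouse MSC80 Schwann line, Pmp22 promoter–CBG68 reporter, EF-alpha–CBR internal control. 24h compound exposure, 37 °C/5% CO2, DMEM + 10% FBS. Readout: corrected green/red luminescence ratio, normalized to untreated cells; concentration-response curves fitted and classified.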

[4] = A High-Content qHTS Against Drug Library for the Identification of Small Molecules that Inhibit DYT1 Early Onset Primary Dystonia-Associated Cell Pathology (AID 1645839); settings: HEK293 Flp-In EGFP-delE TorsinA, punctate imaging, 48 h; measured here: cell count cytotoxicity
Outline: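 Flp-In T-REx 293 cells with tetracycline-inducible EGFP-delE hTOR1A (WT EGFP-hTOR1A as reference), 800 cells/well; compound added with tetracycline, 48 h at 37 C. Fixed, permeabilized cells imaged; %pathology (punctate TorsinA) primary, cell count counterscreen.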

[5] = measured here: cell count channel max response
[6] = measured here: cell number channel AC50
[7] = measured here: lipid (BODIPY) channel AC50
[8] = measured here: lipid channel max response
Tags tell the direction and shape of the fitted curve.

Compound | max response [1, 5] | AC50 [1, 6] | AC50 [1, 7] | max response [1, 8] | AC50 [2] | AC50 ([3]; measured here: green reporter channel AC50, mouse Pmp22 promoter in mouse Schwann cells) | AC50 ([3]; measured here: red reporter channel AC50, EF-alpha promoter control reporter in MSC80 mouse Schwann cells) | AC50 [4]
O[C@@H](Cc1ccncc1)C(Cl)(Cl)Cl | 97.9% | 31.6 µM [rising, partial curve, poor fit] | 31.6 µM [rising, partial curve, poor fit] | 122% |  |  |  | 
COc1cc(CNC(=O)CCCC/C=C\C(C)C)ccc1O | 67.7% and 73.3% | 7.08 µM [rising, partial curve, poor fit] and 28.2 µM [rising, partial curve, poor fit] | 6.31 µM [rising, full curve, poor fit] and 28.2 µM [rising, partial curve, poor fit] | 68.8% and 75.4% |  |  |  | 
COc1ccc(CCN)cc1O | -16.1% | 7.94 µM [falling, full curve, poor fit] | 7.08 µM [falling, full curve, poor fit] | -20.3% |  |  |  | 
CN1C2CC(OC(=O)C(CO)c3ccccc3)CC1C1OC12 (centres undefined) | -3.98% | 5.62 µM [falling, full curve, poor fit] | 5.62 µM [falling, full curve, poor fit] | -2.48% |  |  |  | 
c1ccc2nc(C3=NCCN3)cnc2c1 | 103% | 25.1 µM [rising, partial curve] | 28.2 µM [rising, partial curve] | 137% |  |  |  | 
COc1cc2c(cc1O)-c1c(O)c(OC)cc3c1[C@H](C2)N(C)CC3 | 67.4% | 14.1 µM [rising, partial curve] | 12.6 µM [rising, partial curve] | 81.8% |  |  |  | 
CN1C[C@H](C(=O)N[C@]2(C)O[C@@]3(O)[C@H]4CCCN4C(=O)[C@H](Cc4ccccc4)N3C2=O)C[C@H]2c3cccc4[nH]cc(c34)C[C@@H]21 | 48.7% | 3.16 µM [rising, full curve, poor fit] | 2.82 µM [rising, full curve, poor fit] | 57.2% |  |  |  | 
c1cc2cc(c1)C[n+]1ccc(c3ccccc31)NCc1ccc(cc1)CNc1cc[n+](c3ccccc13)C2 | 19.2% | 6.31 µM [rising, full curve, poor fit] | 6.31 µM [rising, full curve, poor fit] | 18.8% |  |  |  | 
CC1=NCCc2c1[nH]c1cc(O)ccc21 | 84.8% | 10 µM [rising, partial curve, poor fit] | 14.1 µM [rising, partial curve] | 117% |  |  |  | 
C[C@@H](N)Cn1ccc2cc(F)c(Cl)cc21 | 80.8% | 4.47 µM [rising, full curve, poor fit] | 3.98 µM [rising, full curve, poor fit] | 105% |  |  |  | 
COc1ccc(NC(=O)N2CC3(CCN(C(=O)Oc4ccccc4)CC3)C2)cc1 | 17.2% | 0.0891 µM [rising, full curve, poor fit] | 0.2 µM [rising, full curve, poor fit] | 30.6% |  |  |  | 
NC(=O)CN1CCCC1=O | 22% | 0.0562 µM [falling, full curve, poor fit] | 0.0178 µM [falling, full curve, poor fit] | 20.9% |  |  |  | 
O=C(CCCN1CCC2(CC1)C(=O)NCN2c1ccccc1)c1ccc(F)cc1 | 43.9% and -36.1% | 11.2 µM [rising, partial curve] and 126 nM [falling, full curve, poor fit] | 14.1 µM [rising, partial curve, poor fit] | 57.4% and -37.2% | 15.8 µM [rising, partial curve, poor fit] | 75.7 µM [falling, single point] | 84.9 µM [falling, single point] | 3.16 µM [falling, single point]
Oc1ccc2c3c1O[C@H]1c4[nH]c5ccccc5c4C[C@]4(O)[C@H](C2)N(CC2CC2)CC[C@@]314 | 32.1% | 6.31 µM [rising, full curve, poor fit] | 4.47 µM [rising, full curve, poor fit] | 31% |  |  |  | 
COc1ccc2c3c([nH]c2c1)C(C)=NCC3 | 8.85% and 113% | 17.8 µM [rising, partial curve, poor fit] | 20 µM [falling, single point] and 17.8 µM [rising, partial curve, poor fit] | -31.4% and 144% |  |  |  | 
